Hit rate of the full screen: of about 44,000 compounds, about 340 (0.77%) were called active. Not shown: some 5% with an inconclusive outcome. Calls follow the shape of the dose curve; as a rule, active = well fitted inhibition curve with a large enough effect; inconclusive = small, poorly fitted or top-dose-only effect; inactive = flat fitted curve, though single readings scatter. The list shows a part of the results.
Assay: Acumen qHTS Assay for Inhibitors of the mTORC1 Signaling Pathway in MEF (Tsc2-/-, p53-/-) Cells: Sytravon;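 also: plate controls were DMSO for no effect and rapamycin for full effect; nearly all actives have a fitted effect of over 50% in size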
Conditions: phospho-rpS6 immunofluorescence/PI, 24 h; series mostly up to 38.3 µM; activity change, negative = inhibition: at the top concentration
How it was run: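 Plate MEFs (Tsc2-/-, p53-/-, empty vector) in DMEM/10% FBS; after 24 h add compound, incubate 24 h at 37 degree Celsius; fix in PFA/TX-100, block, stain phospho-rpS6 and 10 uM PI; scan at 488 nm; report % positive cells.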

Activity change, negative = inhibition, inactive:
CCOC(=O)c1c(C)[nH]c(CCC(=O)NCc2ccc(N(C)C)cc2)c1C 8.26%
O=c1cc(-c2ccccc2)n2c(SCc3ccc(F)cc3)nnc2[nH]1 -2.36%
O=c1oc2ccccc2cc1-c1cn2cc(Cc3ccc(Cl)cc3)sc2n1 -21%
CCN(Cc1ccccc1)C(=O)Cn1c(=O)n(-c2ccc(C)c(C)c2)c(=O)c2c(C)c(C)sc21 -15.6%
COc1ccc(CNc2oc(-c3ccc(COc4ccccc4C)o3)nc2C#N)cc1 -0.335%
O=C(Nc1cccc(C(F)(F)F)c1)c1cc2ccc3cccnc3c2[nH]1 3.33%
CCn1cc(C(=O)N2CCN(c3ccccc3F)CC2)c(=O)c2cc(S(=O)(=O)N(C)C)ccc21 -3.45%
Cc1ccc(NC(=O)CN2C(=O)CCSc3ccc(S(=O)(=O)N4CCCC4)cc32)cc1C 1.77%
CC1=C(c2ccc(C)cc2)S(=O)(=O)NC1=NCCCN1CCN(c2ccc(F)cc2)CC1 -10.4%
Cc1ccc(C)c(OC(=O)CSc2nnc(CNC(=O)c3ccccc3)o2)c1 0.571%
Cc1cc2oc(C(=O)Nc3ccc(S(=O)(=O)N4CCCCCC4)cc3)cc(=O)c2cc1C -6.02%
CCN(CC)c1ccc(NS(=O)(=O)c2cc3[nH]c(=O)c(=O)[nH]c3cc2C)c(C)c1 -6.1%
CCN(CC)c1ccc(NC(=O)CSc2nc(-c3cccs3)cc(C(F)(F)F)n2)cc1 -13.7%
Cc1ccc(NC(=O)Nc2nnc(N(C)Cc3ccccc3)s2)c(C)c1 -9.54%
CCOc1ccc(-n2nc3ccc(NC(=O)COc4ccc(OC)cc4)cc3n2)cc1 3.71%
COC(=O)c1ccc(C2C(C(=O)Nc3ccccc3)=C(C)Nc3nc4ccccc4n32)cc1 (configuration not stated) 0.117%
CC(=O)N1CCc2c(sc3nc(SCC(C)C)n(-c4ccc(F)c(Cl)c4)c(=O)c23)C1 -26.7%
CCCSc1ncc(Cl)c(C(=O)Nc2c(C(=O)Nc3ccc(C)cc3)oc3ccccc23)n1 1.72%
COc1cc(C)cc2oc(=O)c(CC(=O)NCc3cccc(Cl)c3)c(C)c12 6.69%
CCc1nc(Oc2cccc(F)c2)c2oc3ccccc3c2n1 3.51%
CCN(CC)c1ccc(-c2nc(-c3ccccc3C)no2)cc1[N+](=O)[O-] -1.39%
CC1=C(C(=O)Nc2ccccc2)C(c2cccn2C)n2ncnc2N1 (configuration not stated) 2.09%
Cc1ccc(C)c(Cn2c(C3CC(=O)N(c4ccccc4C)C3)nc3ccccc32)c1 (configuration not stated) -10.8%
Cc1ccc(Nc2nc(C)nc(N)c2S(=O)(=O)c2ccccc2)cc1 -0.783%
COc1ccc(Cn2c(=O)c3oc4ccccc4c3n(CC(=O)Nc3ccc(F)cc3F)c2=O)cc1 -2.33%
O=C(NCCc1ccccc1Cl)c1ccc2c(c1)nc1n2CCCCC1 0.179%
Cc1cc(NC(=O)C2CCN(S(=O)(=O)c3ccc(Br)s3)CC2)ccc1Br -0.822%
Cc1ccc(Cl)cc1N1CCN(Cc2nnc(-c3ccc4c(c3)OCO4)o2)CC1 -3.7%
Cc1ccc(CNC(=O)CSc2n[nH]c(-c3ccc(F)cc3)n2)cc1 -10.2%
O=S(=O)(c1ccc2nc(N3CCN(c4cccc(Cl)c4)CC3)ccc2c1)N1CCCCC1 2.85%
Cc1ccc2c(=O)cc(C(=O)Nc3sc4c(c3C(=O)NCc3cccnc3)CCCC4)oc2c1C -6.18%
Fc1ccc(-c2noc3ncnc(NCCCN4CCN(c5ccccc5)CC4)c23)cc1 -6.99%
O=c1oc2c(CN3CCN(CCO)CC3)c(O)ccc2cc1-c1ccccc1 8.33%
COc1ccc(Cn2ccc3nc(C)c(C(=O)NCc4ccc(F)cc4)cc3c2=O)cc1 -20.3%
COc1cccc(NC(=O)CC2NCCNC2=O)c1 (configuration not stated) 0.545%
COc1ccc(C(=O)NCC(c2ccc(N(C)C)cc2)N2CCc3ccccc32)c(OC)c1 (configuration not stated) 0%
CCc1cc(C(=O)Nc2cnn(Cc3ccccc3C)c2)no1 5.68%
COc1ccc(S(=O)(=O)NCC(c2ccco2)N2CCOCC2)cc1OC (configuration not stated) -3.95%
Cc1ccc(NC(=O)CCc2c(C)nc3cc(-c4ccccc4)nn3c2C)cc1F 1.9%
COc1ccc(-c2nc3c(C#N)c[nH]n3c2NC2CCCC2)c(OC)c1 3.29%
COCCCNc1oc(-c2ccc(COc3ccc(Cl)cc3)o2)nc1C#N -1.51%
COc1ccc(CNC(=O)C2CCN(c3nc4ccccc4[nH]3)CC2)cc1OC -14.7%
O=C(Nc1sc2c(c1C(=O)NCC1CCCO1)CCC2)c1cc(=O)c2ccccc2o1 (configuration not stated) 7.65%
CCCCCNC(=O)CCCCCn1c(=O)[nH]c2ccsc2c1=O 2.63%
CCn1cc(C(=O)OCC(=O)Nc2cccc(C(C)=O)c2)c(=O)c2ccc(C)nc21 2.17%
CCOC(=O)c1c(S(=O)(=O)N2CCCC(C(=O)Nc3cccc(C)n3)C2)c(C)n(C)c1C (configuration not stated) -4.84%
COc1ccc(Cn2c(=O)c3oc4ccccc4c3n(Cc3ccc(Cl)cc3)c2=O)cc1 -2.8%
CCOC(=O)c1c(C)[nH]c(C)c1S(=O)(=O)N1CCCC(C(=O)N2CCN(c3ccccc3)CC2)C1 (configuration not stated) -2.06%
CCOCCc1nn2c(=O)cc(COC(=O)C3CCCCC3)nc2s1 -13%
Cc1cccn2c(=O)c3cc(C(=O)NC(C)c4ccccc4)c(=N)n(CCCO)c3nc12 (configuration not stated) -13.8%
Cc1ccc2c(=O)cc(C(=O)Nc3cccc(C(F)(F)F)c3)oc2c1C 4.98%
COC(=O)c1ccc(OCC2c3cc(OC)c(OC)cc3CCN2C(=O)c2ccc(F)cc2)cc1 (configuration not stated) 8.75%
O=C(Cn1nnc(-c2ccccc2Cl)n1)Nc1ccc(Br)cc1 8.76%
O=C(NCCCN1CCN(c2ccc(F)cc2)CC1)c1ccc2nc(Cc3ccccc3)oc2c1 -3.91%
Cc1ccccc1Cn1c(CN2CCC(C(=O)NCCc3ccccc3)CC2)cc2ccccc21 -2.58%
CCN(CC)CCCNC(=O)c1nn(C)c2c1CS(=O)(=O)c1ccccc1-2 2.74%
CCC(=O)Nc1cccc(C(=O)OCc2cc(=O)n3nc(CC)sc3n2)c1 0%
COc1ccc2c(c1)c1c(c(=O)n(CCc3ccccc3)c(=O)n1Cc1ccc(F)cc1)n2C 2.75%
COc1ccc(NC(=O)c2c(-c3ccc(C)cc3)nnc3ccccc23)c(OC)c1 -2.84%
CCN(CC)c1nc2ccccc2nc1C(=O)Nc1cccc(C(C)=O)c1 -12.2%
Cc1ccc2sc(NC(=O)c3ccc4c(c3)OCCO4)nc2c1C -1.28%
COc1ccc2c(c1)c1c(c(=O)n(-c3ccc(F)c(Cl)c3)c(=O)n1Cc1ccccc1C)n2C -7.11%

Reference: PubChem BioAssay AID493208 (National Center for Advancing Translational Sciences (NCATS), 2011)
